Hit rate of the full screen: of about 340,000 compounds, about 6,900 (2%) were called active. Rule as the data show it: active = inhibition above about 30%; inactive = below that, where a call was filed. The list shows a part of the results, in another mix than the full data. The source gives no active or inactive call for entries shown without one.

For this assay, the target named is D(2) dopamine receptor (Homo sapiens) (UniProt P14416). Briefly: HTS Assay for Allosteric Antagonists of the Human D2 Dopamine Receptor: Primary Screen for Antagonists. Also: 0% is about no effect. To be noted: HEK293 TREx D2 cells, calcium flux, dopamine EC80; at 10 µM; stronger effect = higher value. The gist of the method: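 Overnight-induced (tetracycline, 30 C) HEK293 T-REx cells carrying force-coupled D2 receive a no-wash calcium dye, then compound, then EC80 dopamine at 180 s; signals are read kinetically throughout.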
UniProt P14416, sequence (P14416 whole entry, looked up): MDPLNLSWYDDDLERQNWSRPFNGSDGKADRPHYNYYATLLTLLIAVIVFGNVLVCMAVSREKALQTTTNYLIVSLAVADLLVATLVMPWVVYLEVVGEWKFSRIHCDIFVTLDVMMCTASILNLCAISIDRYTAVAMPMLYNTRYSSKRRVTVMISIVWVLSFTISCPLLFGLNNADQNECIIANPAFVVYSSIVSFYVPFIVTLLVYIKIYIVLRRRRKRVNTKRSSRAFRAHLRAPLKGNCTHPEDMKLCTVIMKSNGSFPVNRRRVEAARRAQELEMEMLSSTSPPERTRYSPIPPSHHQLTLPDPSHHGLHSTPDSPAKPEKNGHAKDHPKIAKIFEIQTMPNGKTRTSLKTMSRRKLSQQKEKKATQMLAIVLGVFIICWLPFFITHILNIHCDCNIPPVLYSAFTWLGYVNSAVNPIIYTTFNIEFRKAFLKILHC
The term inhibition denotes the relative decrease from the control value, in per cent. Turning to `CCOc1ccccc1CNC(=O)CC(C)n1ccc(C)n1` (configuration not stated), the inhibition worked out at 8.92%.

For `CCc1nn(CC(=O)NCc2cccc(OC)c2OC)c(=O)c2cc3occc3n12`, the inhibition worked out at 6.35%.

For `Cc1ccc(C(=O)COC(=O)C(Cc2c[nH]c3ccccc23)NC(=O)c2ccc(Br)cc2)cc1` (configuration not stated), the inhibition is 1.42%.

In the case of `O=C(COC(=O)CCNS(=O)(=O)c1ccccc1F)Nc1nnc(-c2ccccc2)o1`, the inhibition is active: 31.5%.

Consider `O=C(NCCCO)C(=O)Nc1c2c(nn1-c1ccc(F)cc1)CSC2`, for which the inhibition worked out at 26.6%.

As for `Cc1nnc(N2CCC(C(=O)NCc3ccc(N(C)C)cc3)CC2)c2nn(-c3ccccc3)c(C)c12`, the inhibition is -9.86%.

Take `COc1ccc(NC(=O)C2=C(C)Nc3nc(SC)nn3C2c2cc(OC)ccc2OC)cc1` (configuration not stated): the inhibition amounted to 5.04%.

As for `Cn1c(=O)c2sccc2n2c(CCCC(=O)Nc3ccc(F)c(F)c3)nnc12`, the inhibition came to 0.854%.

For `COc1cccc(-c2nc(S(=O)(=O)c3ccccc3)c(NCc3ccccc3)o2)c1`, the inhibition was determined as 8.06%.

With `COc1cccc(-c2cc(C(F)(F)F)nc(NCc3ccc(F)cc3)n2)c1`, the inhibition was 5.14%.

In the case of `COc1ccc(CCNC(=O)c2ccc3c(c2)nc2n3CCOC2)cc1OC`, the inhibition was 15.4%.

With `O=C(NCCSCc1ccco1)Nc1cc(Cl)cc(Cl)c1`, the inhibition is active: 30.3%.

On to `COc1ccc(C(=O)/C=C/c2cn(CC(O)CN(CC(C)C)CC(C)C)c3ccccc23)cc1OC` (configuration not stated), for which the inhibition was 20.9%.

In the case of `Cc1c(C(=O)Nc2ccc(F)cc2F)nnn1-c1ccccc1Br`, the inhibition was found to be 14.7%.

Turning to `CC1=C(C(=O)Nc2ccccc2)C(c2ccncc2)n2nc(SCc3ccccc3)nc2N1` (configuration not stated), the inhibition is 10.8%.

As to `COCCCNC(=O)c1c(C)nn(-c2ccc(F)cc2)c1-n1cccc1`, the inhibition is -4.16%.

Turning to `Cc1cccc(NC(=O)c2sc3cccc(Cl)c3c2Cl)c1`, the inhibition is -1.66%.

Regarding `COc1ccc(CNC(=O)Cc2c(C)c3ccc(O)cc3oc2=O)cc1`, the inhibition turned out to be 20.3%.

As for `CNC(=O)c1c(NC(=O)c2cc(=O)c3ccccc3o2)sc2c1CCC2`, the inhibition was found to be 2.18%.

As for `Cc1ccc(C)c(N2CCN(C(=O)CN3C(=S)NC(C)(C)CC3C)CC2)c1` (configuration not stated), the inhibition is active: 41.5%.

Consider `COc1ccc(-c2nc3ccccc3s2)cc1NC(=O)c1ccccc1OC`, for which the inhibition was 8.21%.

Take `CCCCNC(=O)CSc1c2c(nc3ccc(Cl)cc13)CCCC2`: the inhibition is -7.34%.

Take `Cc1cccc(OCCn2nnc3sc4c(c3c2=O)CCCC4)c1`: the inhibition is -1.29%.

With `CCOc1ccc(CNCCNC(=O)c2nonc2N)cc1`, the inhibition was -4.95%.

`CC(C)c1ccc(NS(=O)(=O)c2ccc3[nH]cc(C(=O)NC4CCCCC4)c(=O)c3c2)cc1`: the inhibition is 0.684%.

With `CC1=C(C(=O)Nc2ccc(C)cc2C)C(c2ccc(C(C)C)cc2)n2nc(C(F)(F)F)nc2N1` (configuration not stated), the inhibition is 10.1%.

`CCOC(=O)c1sc(NC(=O)c2nc(SC)ncc2Cl)c(C(=O)OCC)c1C`: the inhibition was -3.74%.

Take `Cc1cccc(-n2cc(-c3ccccc3)nc2SCC(=O)Nc2ccccc2Cl)c1`: the inhibition was 12.2%.

As for `Cc1oc2ncn(CC(C)C)c(=O)c2c1C(=O)Nc1ccc(Cl)cn1`, the inhibition is -8.03%.

`FC(F)Sc1ccc(NC(=S)NCC2CCCCC2)cc1`: the inhibition is active: 31.9%.

`Cc1ccc(C)c(S(=O)(=O)NCC(c2ccc(N(C)C)cc2)N2CCOCC2)c1` (configuration not stated): the inhibition was found to be 3.04%.

As for `CC(C)(C)OC(=O)N1CCC(c2c(C(=O)N3CCN(C4CCCCC4)CC3)cnn2-c2cccc(Cl)c2)CC1`, the inhibition is -1.98%.

As to `COc1ccc(NC(=O)CSC2=Nc3ccccc3C3=NC(CCC(=O)NCCc4ccccc4)C(=O)N23)cc1` (configuration not stated), the inhibition is -1.1%.

For `Cc1oc2ncn(C)c(=O)c2c1C(=O)N(C)c1ccccc1F`, the inhibition worked out at 0.331%.

Take `COC(=O)c1ccc(NS(=O)(=O)c2ccc3[nH]c4c(c3c2)CCCCC4)cc1`: the inhibition was determined as 4.44%.

Turning to `CCCCCCNCc1ccc(Br)cc1`, the inhibition was active: 30.4%.

Turning to `CCOC(=O)N1CCC(NC(=O)c2cnn(-c3cccc(C)c3)c2-n2cccc2)CC1`, the inhibition came out at 3.06%.

`COc1ccc(NC(=O)Nc2cn(CC(C)C)c(=O)c3ccccc23)c(OC)c1`: the inhibition is -6.1%.

Regarding `O=C1C2=C(Nc3ccccc3SC2c2c(F)cccc2Cl)c2ccccc21` (configuration not stated), the inhibition worked out at 2.07%.

As for `O=C(NCCc1ccc(F)cc1)C(=O)NCC(c1cccs1)S(=O)(=O)c1cccs1` (configuration not stated), the inhibition is -24.3%.

`Fc1cccc(CN2CCC(Cc3ccccc3)CC2)c1`: the inhibition was active: 55.7%.

For `COc1ccc(-c2cc(-c3ccccc3)nc3c2COc2ccc(Cl)cc2-3)cc1`, the inhibition was -5.04%.

In the case of `COc1ccc2[nH]cc(CCNC(=O)Nc3ccccc3C)c2c1`, the inhibition is 10.7%.

For the compound `CC1CCN(S(=O)(=O)c2ccc3nc(-c4cccnc4)cc(C(=O)NCCCOC(C)C)c3c2)CC1`, the inhibition was 19.6%.

`Cc1ccc(Cl)cc1NC(=O)c1oc2ccc(S(=O)(=O)N3CCC4(CC3)OCCO4)cc2c1C`: the inhibition amounted to 16.1%.

For `COc1ccc(C)cc1NC(=O)CN1CCN(CC(=O)Nc2ccccc2F)CC1`, the inhibition came to 15%.

Regarding `COc1cc(CN2CCc3nc(Nc4ccc5c(c4)OCCO5)ncc3C2)cc(OC)c1OC`, the inhibition was -4.49%.

Take `Cc1ccc(Cn2c(C)c(CNC3CCCCC3)c(C(=O)O)c2C)cc1`: the inhibition is -0.879%.

In the case of `CCC(=O)N1CCc2cc(S(=O)(=O)NC(C(=O)NCc3ccc(OC)cc3)C(C)C)ccc21` (configuration not stated), the inhibition is -1.6%.

Consider `COc1ccc(OC)c(CCNC(=O)CCCc2nnc3n(C)c(=O)c4sccc4n23)c1`, for which the inhibition turned out to be 2.71%.

On to `COc1ccc(CCNc2nc3c(c(=O)n(C)c(=O)n3C)n2Cc2ccc(F)cc2)cc1OC`, for which the inhibition amounted to 1.26%.

On to `CCc1ccccc1NC(=O)CC(c1ccc(F)cc1)N1Cc2ccccc2C1=O` (configuration not stated), for which the inhibition is -0.887%.

Take `COC(=O)c1ccc(NC(=O)c2nn(C)c3c2CS(=O)(=O)c2ccccc2-3)cc1`: the inhibition is -16.3%.

`COc1cccc(NC(=S)Nc2cc(C)cc(C)n2)c1`: the inhibition is active: 44.4%.

Take `COc1ccc(CNC(=O)CCc2c(C)nc3c(c2C)c(=O)n(C)c(=O)n3C)cc1`: the inhibition was -10.9%.

Regarding `CCn1cc(C(=O)NCCc2ccccc2)c(=O)c2cc(S(=O)(=O)N3CCOCC3)ccc21`, the inhibition was -6.77%.

Consider `Cc1cccc(-n2ccnc2SCC(=O)Nc2ccccc2C(F)(F)F)c1`, for which the inhibition was determined as 12.8%.

With `O=C(CSc1nc2ccccc2n1Cc1ccc(F)c(Cl)c1)N1CCN(c2ccc(F)cc2)CC1`, the inhibition is -14.8%.

For `CCc1ccc(NC(=O)CSC2=Nc3ccccc3C3=NC(CCC(=O)NCc4cccs4)C(=O)N23)cc1` (configuration not stated), the inhibition is -2.61%.

For `CCCc1nn2c(=O)cc(COC(=O)c3ccc(NC(=O)c4cccs4)cc3)nc2s1`, the inhibition was determined as 6.06%.

On to `O=C(Nc1c(C(=O)N2CCN(c3ccc(F)cc3)CC2)oc2ccccc12)c1ccco1`, for which the inhibition was -5.63%.

On to `COc1ccc(NC(=O)c2c(C)oc3ccc(O)c(CN4CCN(C)CC4)c23)cc1Cl`, for which the inhibition was found to be 9.79%.

Source of the values: PubChem BioAssay AID485344 (National Center for Advancing Translational Sciences (NCATS), 2010).
